Over roughly 110,000 compounds, “z-score” has its median near -0.1; the highest 2% begin near 2. The list shows a part of the results. The source made the active and inactive calls.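 How the source made its calls: active means z-score in the third read window above 3 or below -3; inactive means the rest.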

This test concerns the target Metabotropic glutamate receptor 8 (Rattus norvegicus) (UniProt P70579). The experiment in a line: rat mGluR8 modulators via GIRK flux, primary screen, cell-based, thallium flux, HTS (AID 488969). Particulars: HEK293 rat mGluR8, GIRK (G protein-gated inwardly rectifying potassium channel) thallium flux, FluoZin2; at 10 µM; stronger effect = higher value; submaximal glutamate (EC20) added with thallium.
Sequence of UniProt P70579 (P70579 whole entry, looked up): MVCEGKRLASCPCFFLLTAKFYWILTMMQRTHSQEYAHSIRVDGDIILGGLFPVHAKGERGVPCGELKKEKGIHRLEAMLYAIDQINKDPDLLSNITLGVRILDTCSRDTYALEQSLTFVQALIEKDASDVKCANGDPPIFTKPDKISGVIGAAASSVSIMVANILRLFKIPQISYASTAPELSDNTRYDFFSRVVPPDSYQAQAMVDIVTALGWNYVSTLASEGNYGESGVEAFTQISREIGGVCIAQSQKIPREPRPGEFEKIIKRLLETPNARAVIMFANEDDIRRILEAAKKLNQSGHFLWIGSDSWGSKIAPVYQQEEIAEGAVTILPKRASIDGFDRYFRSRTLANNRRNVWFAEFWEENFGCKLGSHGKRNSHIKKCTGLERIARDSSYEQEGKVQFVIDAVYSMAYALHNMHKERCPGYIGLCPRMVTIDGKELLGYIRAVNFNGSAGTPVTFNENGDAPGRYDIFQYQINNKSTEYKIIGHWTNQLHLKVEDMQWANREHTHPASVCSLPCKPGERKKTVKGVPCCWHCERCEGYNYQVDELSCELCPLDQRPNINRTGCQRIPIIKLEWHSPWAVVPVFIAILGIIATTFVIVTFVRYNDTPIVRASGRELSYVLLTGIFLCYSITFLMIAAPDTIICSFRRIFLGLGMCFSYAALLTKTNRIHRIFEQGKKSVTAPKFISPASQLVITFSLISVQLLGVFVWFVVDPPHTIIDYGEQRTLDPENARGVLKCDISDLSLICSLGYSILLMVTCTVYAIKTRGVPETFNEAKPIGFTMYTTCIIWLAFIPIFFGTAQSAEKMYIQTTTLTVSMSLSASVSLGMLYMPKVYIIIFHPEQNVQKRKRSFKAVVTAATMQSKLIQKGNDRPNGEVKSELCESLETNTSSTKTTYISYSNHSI
`COc1ccc(CCC(=O)Nc2ccc(N3CCOCC3)cc2)cc1` yielded a z-score of -0.283.

Compound `O=C(NCc1ccc2c(c1)OCO2)c1ccc(N2C(=O)C3CCCCC3C2=O)cc1` (stereo not given) yielded a z-score of -0.0941. Compound `Cc1nn(CC(=O)OCC(=O)Nc2ccccc2[N+](=O)[O-])c(C)c1[N+](=O)[O-]` registered a z-score of 0.113.

Turning to `Nc1nc(SCc2ccc(Cl)cc2Cl)n[nH]1`, the z-score is -0.257. Consider `CCOc1cc(C2C(C(=O)N3CCCCC3)=C(C)NC3=C2C(=O)CCC3)cc(Br)c1O` (stereo not given), for which the z-score is -0.346.

Regarding `CNc1nc(Oc2ccc(C(=O)OC)cc2)nc(SC)n1`, the z-score was -0.454. With `CCCCC(=NCCO)C1=C(O)C(C(=O)OC)C(C)(C)CC1=O` (stereo not given), the z-score was -0.13. On to `O=C(Cc1nc2ccccc2s1)c1ccc(O)cc1O`, for which the z-score was -0.0144.

In turn, `COC(=O)N/N=C/c1cn(CCCOc2ccccc2)c2ccccc12` had a z-score of -0.153. Next, `COc1ccc2c(c1)c(=O)oc1cc(OCC(=O)N3CCc4ccccc4C3)ccc12`: -0.0237; `CC(=O)N(C)c1nnc(-c2ccccn2)s1`: -0.0164. For the compound `CCCOC1(NC(=O)c2ccccc2)C(C)=CC(=O)C=C1C`, the z-score was -0.0138.

Compound `CC1CCN(C(=S)c2ccc(O)cc2)CC1` showed a z-score of 0.161. In the case of `COCCN(CC(=O)NCC1CCCO1)C(=O)CCC(=O)Nc1cc(C)on1` (stereo not given), the z-score was determined as 0.00691.

`O=C(O)c1[nH]nc2c1COc1ccccc1-2` returned a z-score of -0.00516.

In the case of `COCCNC(=O)CN1CCC(NC(=O)Nc2ccc(C(F)(F)F)cc2)CC1`, the z-score is -0.00814.

`COc1ccc(C2N=C(N)N=C(N)N2c2ccccc2OC)cc1OC` (stereo not given) showed a z-score of -0.0342. Next, `CCOC(=O)c1ccccc1NC(=O)CSc1nc(N)cc(N)n1`: -1.18; `O=C(NN=C1CCCCC1)c1ccccc1OCc1ccc(F)cc1`: 0.0808. Next, `CCOc1cc(S(=O)(=O)N2CCN(CC)CC2)ccc1Cl`: -0.29. Regarding `O=C(NCc1ccco1)c1cnn2c1NC(c1ccc(Br)cc1)CC2C(F)(F)F` (stereo not given), the z-score is 0.183.

The compound `CCN(CC)S(=O)(=O)c1ccc(N2CCOCC2)c(NC(=O)C2CCCC2)c1` gave a z-score of 0.0379. Next, `CCCOC(=S)NC(=O)c1sc2ccccc2c1Cl`: active: 12; `O=C(O)CCSc1nc2ccccc2n1CCOc1ccccc1`: 0.105. Compound `CN(c1ccccc1C(=O)NCC1CCCO1)S(C)(=O)=O` (stereo not given) had a z-score of 0.319.

The compound `CC1(C)Cc2nc(N)c(=O)sc2C1` gave a z-score of -0.282.

`CC(NC(=O)CSc1nc2sc3c(c2c(=O)n1-c1ccccc1)CCCC3)c1ccccc1` (stereo not given) returned a z-score of -0.244. Next, `CCOC(=O)N1CCN(CC(O)COCc2ccc(OC)c(OC)c2)CC1` (stereo not given): 0.0416. Next, `CCOC(=O)c1ccc(NC(=O)c2ccc(NS(C)(=O)=O)cc2)cc1`: -0.167; `O=C(Nc1ccccc1-c1ccccc1)NC1CC2CCCC(C1)N2CCc1ccccc1` (stereo not given): 0.521; `COc1ccc(NC(=S)NCC2CCN(c3ccc(OC)cc3)C2)cc1` (stereo not given): 0.136.

Take `FC(F)(F)c1cc(-c2ccco2)nc(-n2cnc3ccccc32)n1`: the z-score turned out to be 0.376. Next, `Cn1c(C(=O)NCc2ccccc2)cc2oc3ccccc3c21`: 0.0429; `CC(C)N(c1ccccc1)c1ccc(NC(=O)COC(=O)CCN2C(=O)c3cccc([N+](=O)[O-])c3C2=O)cc1`: -0.494; `Cc1c(C(=O)Nc2ccc3c(c2)OCO3)sc2nc(-c3ccccc3)cn12`: -0.271. For `COCCNS(=O)(=O)c1cc(OC)c(Cl)cc1Cl`, the z-score is 0.0544. Next, `Cc1ccc(S(=O)(=O)N2CCc3ccccc3C2CN2C(=O)c3ccccc3C2=O)cc1` (stereo not given): -0.265; `O=C(NC1CCCC1)C1CCCN(S(=O)(=O)c2cccc3cccnc23)C1` (stereo not given): 0.397.

`CCSc1nnc(NC(=O)C(C)(C)C)s1` had a z-score of 1.36.

With `CC(=O)c1c(C)[nH]c(C(=O)NCc2ccc(C)cc2)c1C`, the z-score is -0.596. Consider `CC(C)CCN=Cc1c(O)n(-c2ccccc2)c(=O)c2ccccc12`, for which the z-score is -0.573. In turn, `N#C/C(C(N)=O)=C1/CCc2ccccc2N1` gave a z-score of -0.382. Next, `CCOC(=O)C1CCCN(C(=O)c2cc(Nc3ccc(OC)cc3OC)nc3ccccc23)C1` (stereo not given): -0.718. Next, `CC(NC(=O)CCc1ccc(S(=O)(=O)NC2CCCCC2)cc1)c1ccccc1` (stereo not given): -0.297; `Cc1c(NC(=O)c2cnn3c2NC(c2ccc(Br)cc2)CC3C(F)(F)F)c(=O)n(-c2ccccc2)n1C` (stereo not given): -0.233; `Cc1ccc(S(=O)(=O)NNC(=O)NC23CC4CC(CC(C4)C2)C3)cc1`: 0.125. Next, `O=C(Cn1cc2c(n1)CCCC2)NC1CCN(Cc2ccccc2)CC1`: -0.592; `COc1ccccc1-c1nnc(SCC(=O)c2ccc(C3CCCCC3)cc2)n1Cc1ccco1`: -0.0485; `CCC1CCc2sc(C(=O)O)cc2C1` (stereo not given): 0.188. `C=CCn1c(=NC(=O)c2cc(-c3cccs3)nc3ccccc23)sc2cc(S(N)(=O)=O)ccc21` yielded a z-score of -0.218. Compound `Cn1c(SCC(=O)N2CCN(S(=O)(=O)c3ccccc3)CC2)nc2ccccc21` returned a z-score of -0.0748. On to `COCC(=O)N(C)C1(c2nnnn2CCOC(=O)Nc2ccc(Cl)cc2)CCCC1`, for which the z-score was -0.281. The compound `CC1(C)CC(=O)C2=C(C1)Nc1[nH]n(-c3ccccc3)c(=O)c1C2c1ccc2c(c1)OCO2` (stereo not given) yielded a z-score of -2.23.

In turn, `Cc1cc(C)nc(SCc2nnc(SCC(=O)Nc3nccs3)n2C)n1` displayed a z-score of 0.465. Turning to `CCC(=O)NCCSc1c[nH]c2ccccc12`, the z-score was -0.228. Next, `CCN(CC)CCNC1=NCCn2c1cc1cc(OC)ccc12`: 0.812. `COc1ccc(-n2c(C)cc(C(=O)CN3C(=O)NC4(CCc5ccccc54)C3=O)c2C)cc1` (stereo not given) registered a z-score of 0.335. As to `O=C(/C=C/c1ccc(Br)cc1)NCc1cccs1`, the z-score amounted to 0.0715. Next, `COc1cccc(C2/C(=C(/O)c3cnn(-c4ccccc4)c3C)C(=O)C(=O)N2CCN(C)C)c1OC` (stereo not given): 0.211; `O=C(C1=COCCO1)N1CCN(C(c2ccccc2)c2ccccc2)CC1`: -0.51. Next, `COc1ccc(OC)c(S(=O)(=O)Nc2cc(OC)c(Cl)cc2OC)c1`: 0.536; `Cc1onc(-c2ccccc2)c1C(=O)N1CCN(C)CC1`: 0.0323. Consider `Nc1ccc2c(c1)C(=O)C(=O)c1ccccc1-2`, for which the z-score was -0.694. Next, `CCOC(=O)c1cccnc1SCC(=O)NC(C)CC` (stereo not given): -0.307; `CNc1nnc(-c2cc3cc(Cl)ccc3oc2=O)s1`: 0.261; `CCOC(=O)/C(C#N)=C\c1ccc(OCC(=O)Nc2ccc(C)cc2C)c(OC)c1`: 0.292. Take `CCN(CC)S(=O)(=O)c1cc(NC(=O)C(C)N(C)CC(=O)Nc2c(C)cccc2C)ccc1C` (stereo not given): the z-score was -0.507. Next, `O=C(NCc1ccccc1Br)c1ccco1`: 0.426; `CN(C)c1ccc(N=c2sc3ccccc3n2C)cc1`: -0.0969; `COc1cc(OC)c(/C=N/NC(=O)c2ccc([N+](=O)[O-])cc2)cc1Br`: 0.0834.

The values are drawn from PubChem BioAssay AID488969 (Vanderbilt High Throughput Screening Facility, 2010).
